Test results taken from PubChem BioAssay AID1963576 (National Center for Advancing Translational Sciences (NCATS), 2024).
About 60 (0.1%) of roughly 46,000 compounds were called active. Inconclusive results (about 3%) are left out. Calls follow the shape of the dose curve; as a rule, active = well fitted inhibition curve with a large enough effect; inconclusive = small, poorly fitted or top-dose-only effect; inactive = no such curve, though single readings can be large or run the other way. Some of the results follow.

Assay: Primary qHTS assay for Inhibitors of ovarian cancer metastasis using an organotypic tumor microenvironment (TME) model. Also: nearly all actives have a fitted effect of over 65% in size.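 As to activity change, negative = inhibition: plate controls were DMSO wells for no effect and tomatine positive control wells for full effect.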
Details: SKOV3ip1-GFP adhesion/invasion on 3D omental model, fluorescence; series mostly up to 45.8 µM; activity change, negative = inhibition: at the top concentration
Method in brief: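 qHTS, 4-pt dose (0.36-46 umol/L); SKOV3ip1-GFP, 1,200 cells/well, no FBS; primary omental fibroblast/mesothelial co-culture 48 h pre-grown; 2 h RT + 16 h 37 C; PBS wash, 4% PFA; GFP count 488/509 nm.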

Activity change, negative = inhibition, inactive:
COc1ccc(N2CCN(S(=O)(=O)c3ccc(OC)c(-c4noc(C)n4)c3)CC2)cc1 -15.1%, CCOc1ccc(Sc2cc(C(=O)NC(C)CC)c3ccccc3n2)cc1 (stereo not drawn) -21.6%, COc1ccc(-c2cn3nc(N4CCC(C(=O)Nc5cccc(OC)c5)CC4)sc3n2)cc1 4.44%, Cc1ccc(C2CC(=O)N(Cc3ccccc3)c3c2c(C)nn3-c2nc(C)cc(C)n2)cc1 (stereo not drawn) -1.48%, CCc1ccc(NC(=O)CSc2nccn2-c2cccc(C)c2C)cc1 -20.4%, O=C(C1CCCN(S(=O)(=O)c2ccc(Br)s2)C1)N1CCN(c2ccc(F)cc2)CC1 (stereo not drawn) -4.03%, O=c1cc(-c2ccc(F)cc2)nc(SCc2nc(-c3cccc(Cl)c3)no2)[nH]1 8.76%, Cc1cc(NC(=O)CSc2nc3c([nH]c4ccccc43)c(=O)n2-c2ccccc2)no1 -6.26%, Cc1ccc(Cl)cc1-n1ncc2c(NCCCn3ccnc3)ncnc21 9.85%, Cc1ccc2c(=O)cc(C(=O)Nc3sc4c(c3C(N)=O)CCCC4)oc2c1 -16.3%, O=C(C1CCN(S(=O)(=O)Cc2ccccc2)CC1)N1CCN(c2ccc(F)cc2)CC1 -7.42%, Cc1ccc(C)n1-c1c(C(=O)NCCCN2CCN(c3ccc(F)cc3)CC2)sc2ncccc12 -17.7%, CCOC(=O)c1cc(C)n(CC2CCC(C(=O)Nc3ccc(OCC)cc3)CC2)c1C (stereo not drawn) -0.719%, Cc1ccc2oc(-c3cc(NC(=O)c4ccc5c(c4)OCCO5)cc(C)c3O)nc2c1 32.5%, CC1=C(C(=O)OCC(C)C)C(c2ccc(OCc3ccccc3)cc2)N2C(=O)CCSC2=N1 (stereo not drawn) 1.25%, Cc1ccc(-n2nc(C(=O)Nc3ccc(Cl)cn3)c3c4ccccc4n(C)c3c2=O)cc1 -3.15%, Cc1ccccc1OCc1ccc(-c2nc(C#N)c(N3CCN(C)CC3)o2)o1 -29.9%, Cc1ccc(Cl)cc1N1CCN(C(=O)c2cccn3c(=O)c4cc(Cl)ccc4nc23)CC1 -0.729%, COc1ccc(NC(=O)CCn2nc(-c3ccccc3OC)c3c(C)cc(C)nc32)cc1 -13.1%, COc1cc(CN(C(=O)c2cccc(Cl)c2)c2ccccn2)cc(OC)c1OC -0.138%, CCC(C(=O)N1CCN(c2ccccc2F)CC1)n1nc(C)c2sc3ccccc3c2c1=O (stereo not drawn) 2.81%, CCN(CC)C(=O)Cn1c(SCCOc2ccc(Cl)cc2)nc2ccccc21 4.46%, CCCCN(C)C(=O)C1CCC(CNS(=O)(=O)c2ccc3c(c2)CC(C)N3C(C)=O)CC1 (stereo not drawn) -10.6%, COc1ccc(NC(=O)CSc2nc(-c3ccco3)cc(C(F)(F)F)n2)c(OC)c1 -2.83%, COc1ccc(NC(=O)c2ccc(CNS(=O)(=O)c3ccc4c(c3)C(C)(C)C(=O)N4C)cc2)cc1 -28.7%, CC(=O)N1c2ccccc2C(=O)C1N1CCN(c2ccc(F)cc2)CC1 (stereo not drawn) -1.09%, O=C1CC(c2nc(-c3cccc(Cl)c3)no2)CN1c1ccc2c(c1)OCCO2 (stereo not drawn) 9.95%, Cc1ccc(Cl)cc1NCc1nnc2n1CCCCC2 2.75%, CC(O)(C#Cc1ccc2c(c1)N(c1nc(N)ncc1Cl)CC2)c1nccs1 (stereo not drawn) 15.9%, CC(C)OCCCNC(=O)CN1C(=O)CSc2ccc(S(=O)(=O)N3CCCCC3)cc21 1.91%, Cc1c(C)n(Cc2ccccc2)c2ccc(C(=O)NCCc3ccccc3Cl)cc12 5.53%, COc1cccc(CNC(=O)C2CCCN(c3ncnc4onc(-c5ccc(F)cc5)c34)C2)c1 (stereo not drawn) 6.74%, CC(C)Oc1ccc(CNC(=O)CCn2c(=O)c3cccn3c3ccc(F)cc32)cc1 21.6%, O=C(Nc1ccc2c(c1)N(C1CCCC1)C(=O)c1ccccc1S2)c1cccc(F)c1 4.44%, COc1cccc(-n2c(=O)c3c(C)c(C(=O)N(C)C)sc3n(CC(=O)Nc3ccc(C)cc3Cl)c2=O)c1 31.5%, CCN(C(=O)Cn1c(=O)oc2cc(S(=O)(=O)N3CCCC3)ccc21)c1cccc(C)c1 3.85%, CCOc1ccccc1CNC(=O)CCc1cn(Cc2ccc(Cl)cc2)c2ccccc12 0.741%, Cc1ccc(-n2nnnc2C2CCN(S(=O)(=O)c3ccc(OC(F)(F)F)cc3)CC2)cc1 7.27%, Cc1n[nH]c(C)c1S(=O)(=O)N(CC(=O)NCc1ccccc1Cl)c1ccc(C(C)C)cc1 -4.74%, COc1ccc(C(=O)Nc2ccc(OCc3cc(=O)n4ccccc4n3)cc2)cc1 -4.61%, N#C/C(=C\c1ccc(-c2ccc(F)cc2F)o1)c1nc2ccccc2[nH]1 -3.55%, COc1ccc(CNC(=O)c2ccc3[nH]c(C)c(C)c3c2)c(OC)c1 9.08%, COCCCNC(=O)CSc1nc2ccccc2c(=O)n1Cc1ccco1 -1.53%, CCOc1ccc(CCNC(=O)c2c(C)oc3ncnc(N4CCOCC4)c23)cc1 2.04%, Cc1cc(C)cc(NC(=O)CN(C)S(=O)(=O)c2ccc3[nH]c4c(c3c2)CCCC4)c1 -0.148%, COc1ccc(-c2onc(C)c2C)cc1S(=O)(=O)NCc1ccc(Br)cc1 0.993%, Cc1ccc(C)c(N2CCN(C(=O)CCS(=O)(=O)c3ccc4c(c3)CC(=O)N4C)CC2)c1 89.3%, CCc1nnc2c(NCCc3ccc(OC)c(OC)c3)nc3ccccc3n12 -4.47%, CCc1ccc(NC(=O)CC2C(=O)N(c3ccc(Cl)cc3)C(=O)N2Cc2cccs2)cc1 (stereo not drawn) -7.88%, Cc1ccc(S(=O)(=O)NCC2CCC(C(=O)N(C)Cc3ccccc3)CC2)cc1 (stereo not drawn) 17.5%, CC(Oc1ccc(F)cc1)C(=O)Nc1cc(-c2ccc(F)c(F)c2)no1 (stereo not drawn) 10.3%, COc1ccc(-c2nnc(SCC(=O)Nc3ccc(C(C)=O)cc3)nc2-c2ccc(OC)cc2)cc1 -9.97%, COc1ccc(OC)c(S(=O)(=O)Nc2cc3c(C(C)=O)c(C)oc3c3ccccc23)c1 -9.86%, COC(=O)c1c(NC(=O)COc2cc(C)c(Cl)c(C)c2)sc2c1CCCC2 3.62%, COc1ccc(S(=O)(=O)N(CC(=O)N(C)Cc2ccccc2)c2ccc(Cl)cc2)cc1 47%, CCn1cc2nc(SCc3ccc(C)cc3)n(CCc3ccccc3)c(=O)c2n1 68%, Cc1cccc(OCC(=O)Nc2ccc(-c3nc4cc(C)ccc4o3)c(O)c2)c1 -7.28%, CC1CCCN(c2cc3c(cc2F)c(=O)c(S(=O)(=O)c2cccc(Cl)c2)cn3C)C1 (stereo not drawn) -0.826%, O=C(NC1CCCCC1)c1c[nH]c2ccc(S(=O)(=O)Nc3ccccc3F)cc2c1=O 12%, CCOC(=O)c1ccc(NC(=O)c2c(NCc3sccc3C)sc3c2CCCCC3)cc1 1.06%, CC(C)(C)c1ccc(C(=O)NC(Cc2c[nH]c3ccccc23)C(=O)OCC(=O)c2ccccc2)cc1 (stereo not drawn) 18.8%, Cc1cc(C)cc(NC(=O)N2CCN3CCCCC3C2)c1 (stereo not drawn) 6.83%, COc1cccc(C(=O)Nc2cc3cc(OC)ccc3oc2=O)c1 3.34%, COc1ccc(N(CC(=O)NCCc2cccc(C)c2)S(=O)(=O)c2c(C)noc2C)cc1 -7.77%, COC(=O)c1cc2sc(Cl)cc2n1Cc1nc(-c2ccc(OC)cc2)oc1C 9.83%, Cc1cc(C(=O)NCCc2ccc(Cl)cc2)c2c(C)nn(-c3cccc(F)c3)c2n1 0.447%, COc1ccc(C)cc1NC(=O)C(=O)NCC1(c2ccccc2)CCCC1 0.419%, O=C(Nc1nnc(S(=O)(=O)N2CCN(c3ccc(F)cc3)CC2)s1)c1ccc(Cl)cc1 4.36%, Cc1ccc(Cl)cc1NC(=O)COCc1cc(-c2ccco2)on1 8.04%, COc1ccc(-c2[nH]c3c(c2-c2c(-n4cccc4)n(C)c(=O)n(C)c2=O)c(=O)n(C)c(=O)n3C)cc1 6.37%

outcome, inactive:
COc1ccc(NC(=O)CSc2nc3ccncc3[nH]2)c(OC)c1, CC1CN(C(=O)N2CCC(C(=O)NCCC3=CCCCC3)CC2)c2cc(Cl)ccc2O1 (stereo not drawn), CCc1ccc(NC(=O)c2ccc(F)c(S(=O)(=O)N(C)C3CCCCC3)c2)cc1, COc1cc(NC(=O)c2nc3ccccc3nc2C)cc(OC)c1OC, Cc1ccc(C)c(CN2C(=O)C3(c4ccccc42)N(c2cccc(C(F)(F)F)c2)C(=O)CS3(=O)=O)c1 (stereo not drawn), COc1ccc(C2C(=O)N(C3CCCCC3)CC(=O)N2CCc2ccc(OC)c(OC)c2)cc1 (stereo not drawn), O=C(CCS(=O)(=O)c1cc2c(cc1Cl)NC(=O)CO2)NCCc1ccc(Cl)cc1, CCCc1nn2c(=O)cc(COc3ccc(/C=C(\C#N)C(=O)Nc4ccc(F)cc4)cc3)nc2s1, O=C(NCCc1csc(-c2cccc(F)c2)n1)c1ccc(Br)o1, Cc1ccc(NC(=O)CN2C(=O)COc3ccc(S(=O)(=O)N4CCCCCC4)cc32)cc1C, Cc1ccc(OCC(=O)N(Cc2ccco2)C2CCS(=O)(=O)C2)cc1 (stereo not drawn), CCOc1ccc(NS(=O)(=O)c2ccc3c(c2)CCN3C(C)=O)cc1, COc1cccc(C2CC(=O)Nc3c2c(=O)n(C)c2ncnn32)c1OC (stereo not drawn), Cc1ccc(OCC(=O)Nc2ccc(Cl)c(-c3nc4ccccc4[nH]3)c2)cc1C, CCC1CN(C(=O)N2CCC(C(=O)NCCC3=CCCCC3)CC2)c2cc(C)ccc2O1 (stereo not drawn), COc1ccc(NC(=O)CSc2nnc(NC(=O)Nc3ccccc3)s2)c(OC)c1, COc1ccc(Cn2c(=O)[nH]c3cc(C(=O)N4CCN(c5cccc(OC)c5)CC4)ccc3c2=O)cc1, Cn1cc(C(=O)NCc2ccc(Cl)cc2)c(=O)c2cc(S(=O)(=O)N3CCCCCC3)ccc21, Cc1cc(C)c2c(n1)SCCN2C(=O)Nc1ccc(C(=O)Nc2cc(Cl)ccc2C)cc1, CC(C)(C)c1ccc(C2NC(=O)c3n[nH]c(-c4cccs4)c32)cc1 (stereo not drawn), Cc1ccc(C(=O)Nc2ccc(C(=O)OCc3cc(=O)n4ccsc4n3)cc2)cc1, CCCCSCCCNC(=O)CN1C(=O)COc2ccc(S(=O)(=O)N3CCC(C)CC3)cc21, O=C(CNC(=O)c1ccc(Cl)cc1)OCc1cc(=O)n2ccsc2n1
